Reference: the supplement of paper PMC4723716
± gives the uncertainty stated by the source. The full ranking holds about 9,900 compounds; the median of “viability index relative to DMSO control” is about 1, and the lowest 2% start at about 0.85. This is one part of the list.

Test system: Plasmodium falciparum NF54 stage V gametocytes
Assay: viability index relative to DMSO control (fraction); higher = less gametocyte killing
Conditions: 2.5 µM, incubation time: 72 h
How it was run: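 Stage V gametocytes of P. falciparum NF54 were held in serum-free screening medium at 0.75% gametocytemia and 1.25% hematocrit, 10 µl per well of a 1,536-well plate, and exposed to compound at 2.5 µM for 72 hr at 37°C under low oxygen. A 3 µl mix of 2.5 µM MitoTracker Red CMXRos with 0.13% saponin was then added for one to two hours, after which one field per well was imaged and red particles of 20–70 µm2 were counted. The viability index equals this count divided by the plate mean from wells given solvent alone.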

[1] = library set: Broad Institute DOS

Compound	viability index [1]	viability index (library set: Broad Institute Blood Stage)
O=C(C[C@@H]1C[C@H]2c3cc(NC(=O)Nc4ccccc4F)ccc3O[C@H]2[C@@H](CO)O1)NCc1ccccn1	0.992 ± 0.045	–
CO[C@@H]1CN(C)C(=O)c2cc(NS(=O)(=O)c3cn(C)cn3)ccc2OC[C@@H](C)NC[C@@H]1C	1.023 ± 0.0092	–
Cc1ccc(S(=O)(=O)Nc2ccc3c(c2)CC(=O)N([C@@H](C)CO)C[C@@H](C)[C@@H](CN(C)S(=O)(=O)c2ccccc2)O3)cc1	0.9192 ± 0.0059	–
CC(C)NC(=O)N(C)C[C@@H]1Oc2c(NS(=O)(=O)c3cccs3)cccc2C(=O)N([C@@H](C)CO)C[C@H]1C	1.01 ± 0.083	–
COc1ccc2c(c1)n(C)c1[C@H](CO)N(C[C@]3(CCN(C)CC3)c21)C(=O)c1ccc(F)cc1	1.05 ± 0.018	–
C[C@@H]1CCCCO[C@@H](CN(C)S(=O)(=O)c2ccc(Cl)cc2)[C@H](C)CN([C@H](C)CO)C(=O)c2cc(NC(=O)Nc3ccc(C(F)(F)F)cc3)ccc2O1	1.0688 ± 0.0004	–
CC(=O)N1CC[C@@H]2[C@H](CO)Nc3ccc(-c4ccccc4)cc3[C@@H]21	1.09 ± 0.09	–
COc1cccc(CNC(=O)C[C@@H]2CC[C@@H]3[C@@H](COc4ccc(NC(=O)c5cccs5)cc4C(=O)N3C)O2)c1	1.07 ± 0.012	–
CO[C@@H]1CN(C)C(=O)c2cc(NC(C)=O)ccc2OC[C@H](C)N(Cc2ccncc2)C[C@H]1C	1.05 ± 0.03	–
O=C(Nc1ccc(F)cc1)N1CC(=O)N2[C@H](CO)[C@H](c3ccc(C4=CCCC4)cc3)[C@H]2C1	1.05 ± 0.043	–
COc1ccccc1-c1ccc([C@H]2[C@H](CO)N3CCCCN(C(=O)c4cccnc4)C[C@@H]23)cc1	1.08 ± 0.037	–
C[C@@H]1CCCCO[C@H](CN(C)C(=O)CCCN(C)C)[C@@H](C)CN([C@H](C)CO)C(=O)c2cc(NS(=O)(=O)c3ccc(Cl)cc3)ccc2O1	1.07 ± 0.084	–
COc1cccc(C(=O)Nc2ccc3c(c2)C(=O)N(C)[C@H]2CC[C@H](CC(=O)N[C@@H](C)c4ccccc4)O[C@H]2CO3)c1	1.14 ± 0.14	–
O=C(C[C@H]1CC[C@H]2[C@@H](COC[C@@H](O)CN2C(=O)c2ccncc2)O1)NCc1cc(F)cc(F)c1	0.988 ± 0.027	–
Cc1ccc(S(=O)(=O)Nc2cccc3c2O[C@@H](CN(C)C(=O)Nc2ccc(C(F)(F)F)cc2)[C@@H](C)CN([C@H](C)CO)C3=O)cc1	1.08 ± 0.061	–
CO[C@@H]1CN(C)C(=O)c2ccc(NS(=O)(=O)c3c(C)noc3C)cc2OC[C@H](C)NC[C@@H]1C	1.11 ± 0.049	–
CC(=O)N(CC1CCC1)C[C@@H]1N[C@@H](CO)[C@H]1c1ccc(C2=CCCC2)cc1	1.04 ± 0.024	–
O=C(C[C@H]1CC[C@H]2[C@@H](COC[C@@H](O)CN2C(=O)Nc2ccc(Cl)cc2)O1)NCC1CCCCC1	1.02 ± 0.061	–
O=C(C1CCOCC1)N1CC(=O)N2[C@@H](CO)[C@@H](c3ccc(C#CC4CCCCC4)cc3)[C@@H]2C1	1.05 ± 0.042	–
N#C[C@H]1[C@@H](c2ccccc2C2=CCCCC2)[C@@H](CO)N1C(=O)CN1CCOCC1	1.12 ± 0.094	–
O=C(C[C@H]1C[C@H]2c3cc(NC(=O)C4CCOCC4)ccc3O[C@H]2[C@@H](CO)O1)NCCN1CCCCC1	1.1 ± 0.066	–
O=C(NCC1CCCCC1)[C@@H]1[C@@H](CO)[C@@H]2Cn3c(ccc(-c4ccc(F)cc4)c3=O)[C@H]1N2	1.04 ± 0.012	–

Compound	viability index [1]	viability index (library set: Broad Institute Blood Stage)
COc1ccc2c3c([nH]c2c1)[C@H](CO)N(C[C@]31CCN(CC2CCCC2)CC1)S(C)(=O)=O	0.875 ± 0.17	–
C[C@H]1CN([C@@H](C)CO)S(=O)(=O)c2ccc(C#CC(C)(C)O)cc2O[C@H]1CN(C)Cc1ccc(F)cc1	1.07 ± 0.016	–
COc1ccc2c3c([nH]c2c1)[C@@H](CO)N(C[C@]31CN(C1)C(=O)CN1CCOCC1)C(C)=O	0.99 ± 0.027	–
C/C=C/c1ccc([C@H]2[C@@H](CNC(C)=O)N(C(=O)Cc3ccncc3)[C@H]2CO)cc1	0.983 ± 0.1	–
Cc1ccc(S(=O)(=O)NCC[C@@H]2CC[C@@H](NC(=O)c3cccnc3)[C@H](CO)O2)cc1	1.03 ± 0.12	–
COc1ccc(NC(=O)N(C)C[C@@H]2OCCCC[C@@H](C)Oc3ccc(NC(=O)c4ccncc4)cc3C(=O)N([C@H](C)CO)C[C@H]2C)cc1	1.14 ± 0.022	–
COc1ccccc1NC(=O)N[C@H]1CC[C@@H](CCNS(=O)(=O)c2ccc(Cl)cc2)O[C@@H]1CO	0.977 ± 0.046	–
Cc1ccccc1-c1ccc([C@@H]2[C@@H]3CN(Cc4cncnc4)C[C@H]2N3)cc1	1.08 ± 0.018	–
C[C@H](NC(=O)C[C@H]1CC[C@H]2[C@@H](COC[C@H](O)CN2C(=O)Nc2cccc(Cl)c2)O1)c1ccccc1	1.07 ± 0.082	–
CO[C@@H]1CN(C)C(=O)c2cc(NS(=O)(=O)c3ccc(Cl)cc3)ccc2OC[C@H](C)N(C(=O)NC(C)C)C[C@H]1C	1.06 ± 0.04	–
C[C@H]1CN([C@@H](C)CO)C(=O)c2cc(C#Cc3ccccc3)cnc2O[C@@H]1CN(C)C(=O)c1ccccc1	0.919 ± 0.071	–
CN1CCN(C(=O)C[C@H]2CC[C@@H]3[C@@H](COc4ccc(NC(=O)C5CCOCC5)cc4C(=O)N3C)O2)CC1	1.149 ± 0.0076	–
COc1ccc(S(=O)(=O)N2C[C@H](O)COC[C@@H]3O[C@@H](CC(=O)N[C@H]4CCN(Cc5ccccc5)C4)CC[C@H]32)cc1	0.998 ± 0.093	–
C[C@@H]1COCc2cnnn2CC[C@@H](Cc2ccccc2)C(=O)N1	0.969 ± 0.037	–
C[C@@H]1CN([C@H](C)CO)C(=O)c2cc(NS(=O)(=O)c3cccs3)ccc2O[C@@H]1CN(C)S(=O)(=O)c1ccc(Cl)cc1	0.991 ± 0.095	–
O=C(C1CCCCC1)N1CC2(C1)[C@H](c1ccccc1)[C@H](CO)N2CCC(F)(F)F	1.14 ± 0.032	–
O=C(NC[C@H]1[C@H](c2ccccc2)[C@H](CO)N1C(=O)C1CCC1)NC1CCCC1	0.995 ± 0.038	–
COc1cccc(C#Cc2ccc([C@@H]3[C@@H](C#N)N(C(=O)C4CCCCC4)[C@H]3CO)cc2)c1	–	0.7 ± 0.1
Cc1ccccc1S(=O)(=O)N1CCCCN2[C@@H](CO)[C@@H](c3ccc(C#CCN(C)C)cc3)[C@@H]2C1	0.947 ± 0.032	–
O=C(Cc1ccccc1)NC[C@H]1N[C@H](CO)[C@@H]1c1ccc(C2=CCCC2)cc1	1.01 ± 0.032	–
CN(C)C(=O)[C@@H]1[C@@H](CO)[C@@H]2Cn3c(ccc(/C=C/c4ccccc4)c3=O)[C@@H]2N1C(=O)c1cccnc1	1.08 ± 0.033	–
COc1ccccc1CN1[C@@H]2Cn3c(cccc3=O)[C@H]1[C@@H](C(=O)N1CCc3ccccc3C1)[C@@H]2CO	1.068 ± 0.0069	–
